Reference: PubChem BioAssay AID445 (National Center for Advancing Translational Sciences (NCATS), 2006)
In all, about 110,000 compounds went through this assay and about 40 (0.04%) were called active. The shares of active, inactive and inconclusive entries below differ from those in the screen. The call rests on the fitted dose curve; in most records, active means well fitted curve in the direction sought with a large enough effect in the signal ratio (not every such curve was filed as active); inconclusive means small, poorly fitted or top-dose-only effect, or a change in a side signal; inactive means flat fitted curve, though single readings scatter; the % refers to the signal ratio. Potencies of inconclusive entries are doubtful fits and often do not repeat.
Potency means the concentration at half of the fitted maximal effect.

Experiment: IkB Signaling;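 on IkBa stabilization activation: 0% = basal untreated cells and 100% = reference inhibitor full response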
Conditions: ABC-DLBCL IkBa-CBG/CBR dual luciferase ratio (green luciferase fused to IkBa over red control in OCI-Ly3 lymphoma cells), 4 h; IkBa stabilization activation: at 57.1 µM (top of the series), scaled: untreated 0%, proteasome inhibitor 100% unless noted
Method in brief: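 In this assay, an IκBα–CBG68 fusion accumulates when IKK-driven degradation is blocked; native CBR normalizes for cell number. OCI-Ly3 cells were treated 4 h with compound and doxycycline, then green and red light read after Chroma-Glo addition.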
In the case of `Cc1ccc(NC(=O)C2CCCN(S(=O)(=O)c3ccc4c(c3)CCCC(=O)N4)C2)cc1Cl` (stereo unspecified), the IkBa stabilization activation is reported as inconclusive: 3.47% [signal inhibitor]. With `O=C(c1ccc(Cl)cc1)c1cn(Cc2ccccc2)c2cc3c(cc2c1=O)OCCO3` the IkBa stabilization activation was inconclusive: 1.9% [signal inhibitor]. In the case of `COc1cc(OC)c(OC)cc1/C=C/c1nc2ccccc2c(=O)n1-c1ccc(Br)c(C)c1`, the IkBa stabilization activation is reported as “inactive”. In the case of `CCc1ccc(CNC(=O)c2ccc(CS(=O)(=O)Cc3cccc(C)c3)o2)cc1`, the IkBa stabilization activation is reported as inconclusive: 1.92% [signal inhibitor]. With `CN(C)c1ncc2nc(-c3ccc(F)cc3)c(=O)n(C[C@H]3CCCO3)c2n1` the IkBa stabilization activation was inactive: -0.138% [at 11.4 µM, scaled: untreated 0%, proteasome inhibitor 100%]. In the case of `O=C(NCc1ccc(Cl)cc1)c1ccc2c(c1)N(Cc1ccccc1F)C(=O)c1ccccc1S2=O` (stereo unspecified), the IkBa stabilization activation is reported as inconclusive: 2.43% [signal inhibitor]. In the case of `CCC(C(=O)NCCc1ccc(Cl)cc1)n1ccc2cc(S(=O)(=O)N3CCCCC3)ccc21` (stereo unspecified), the IkBa stabilization activation is reported as inconclusive: 2.27% [signal inhibitor]. In the case of `Nc1c(C(=O)Nc2ccccc2)sc2nc(-c3ccco3)ccc12`, the Potency is reported as inconclusive: 31.6 µM [rising, single point]. For `O=C(NC1CCCCC1)c1ccc(N2CCCC2=O)cc1`, the IkBa stabilization activation was inconclusive: 4.96% [signal inhibitor]. In the case of `CC(=O)c1cc(-c2ccccc2)n(CC(=O)NCc2ccccc2C)c1C`, the IkBa stabilization activation is reported as “inactive”. For `COc1ccc(-c2noc(CSc3nnc(-c4ccccc4)n3C)n2)cc1`, the IkBa stabilization activation was inconclusive: 0.476% [signal inhibitor]. In the case of `CC(=O)N1CCN(c2ccc(OC[C@H]3CO[C@](Cn4ccnc4)(c4ccc(Cl)cc4Cl)O3)cc2)CC1`, the IkBa stabilization activation is reported as inconclusive: 1.73% [signal inhibitor]. In the case of `COc1ccc(S(=O)(=O)C(C#N)c2nc3ccccc3nc2N2CCCCC2)cc1` (stereo unspecified), the IkBa stabilization activation is reported as “inactive”. With `Cc1oc2c(cc(NS(=O)(=O)c3ccc(F)cc3)c3ccccc32)c1C(=O)OCc1ccccc1` the IkBa stabilization activation was inconclusive: 6.17% [signal inhibitor]. With `N#Cc1c(-c2ccco2)cc(C2CC2)nc1SCC(=O)c1ccccc1` the IkBa stabilization activation was “inactive”. With `COc1ccc2c(CC(=O)Nc3ccc(OC)c(NS(=O)(=O)c4ccc(F)cc4)c3)coc2c1` the IkBa stabilization activation was inconclusive: 2.62% [signal inhibitor]. With `Cc1cccc(-n2cnc3cc(C(=O)NC4CCCCCC4)ccc32)c1` the IkBa stabilization activation was inconclusive: -1.26% [signal inhibitor]. With `Cc1cccc(OCC(=O)Nc2ccccc2C(=O)OCc2cc(=O)n3nc(C4CC4)sc3n2)c1` the IkBa stabilization activation was inconclusive: 9.23% [signal inhibitor]. With `Cc1ccc(NC(=O)c2ccc(NS(=O)(=O)c3c(C)noc3C)cc2)cc1C` the IkBa stabilization activation was inconclusive: 1% [signal inhibitor]. For `CCn1cc(C(=O)Nc2ccc(C(C)C)cc2)c2cc(OC)c(OC)cc2c1=O`, the IkBa stabilization activation was inconclusive: 12.6% [signal inhibitor]. For `CCc1cccc(N2C(=O)N(Cc3c(F)cccc3Cl)c3ccccc3S2(=O)=O)c1`, the IkBa stabilization activation was “inactive”. In the case of `Cc1ccc2cc3cc(C(=O)N(C)c4ccccc4C)oc3nc2c1`, the IkBa stabilization activation is reported as “inactive”. With `CCOC(=O)c1ccc(NC(=O)c2c(NCc3cc(OC)ccc3OC)sc3c2CCC3)cc1` the IkBa stabilization activation was inconclusive: 0.837%. With `CCc1cnc2c(c1SCCC(C)C)c(=O)n(C)c(=O)n2C` the IkBa stabilization activation was inconclusive: -1.13% [signal inhibitor]. With `CCOC(=O)c1cc2c(=O)n3cc(C)ccc3nc2n(Cc2cccnc2)c1=N` the IkBa stabilization activation was “inactive”. For `COc1cccc(-c2nc(SCC(=O)NC3CCCC3)c(-c3ccc(F)cc3)[nH]2)c1`, the IkBa stabilization activation was inconclusive: -5.97% [signal inhibitor]. In the case of `N#Cc1c(N)c(C#N)c(-c2ccc(O)cc2)c2c1CCCC2`, the IkBa stabilization activation is reported as inconclusive: 6.04% [signal inhibitor]. For `CC(=O)c1c(C)[nH]c(C(=O)CSc2nc3ccccc3c(=O)n2CCCN2CCOCC2)c1C`, the IkBa stabilization activation was “inactive”. For `Nc1ccc(Cl)cc1[N+](=O)[O-]`, the IkBa stabilization activation was “inactive”. With `COC(=O)c1ccc(Nc2ncnc3c2cnn3-c2ccccc2)cc1` the IkBa stabilization activation was inconclusive: 1.96% [signal inhibitor]. With `COc1cc(NC(=O)CCc2c(C)nc3c4c(C)cc(C)nc4nn3c2C)cc(OC)c1` the IkBa stabilization activation was “inactive”. With `O=c1cnc2cncnc2n1Cc1ccccc1` the IkBa stabilization activation was inactive: 3.42% [at 11.4 µM, scaled: untreated 0%, proteasome inhibitor 100%]. In the case of `C=CCn1c(=N)c(C(=O)NCCCOC)cc2c(=O)n3ccccc3nc21`, the IkBa stabilization activation is reported as “inactive”. For `COc1cc(-c2nnc(SCC(=O)Oc3ccc(C)cc3C)o2)cc(OC)c1OC`, the IkBa stabilization activation was inconclusive: 3.08% [signal inhibitor]. For `Nc1ccccc1S[C@@H](C[N+](=O)[O-])c1ccc2c(c1)OCO2`, the Potency was inconclusive: 3.98 µM [rising, partial curve]. For `Cc1ccc(CNC(=O)c2nc(S(=O)(=O)Cc3ccc(C)cc3)ncc2Cl)cc1`, the IkBa stabilization activation was “inactive”. With `CCOC(=O)C1(C)C=C(Nc2cccc(C)c2)C(=O)N1c1ccccc1` (stereo unspecified) the IkBa stabilization activation was inconclusive: 7.73% [signal inhibitor]. For `Cc1ccc(-n2c(SCc3cn4ccsc4n3)nc3ccccc3c2=O)cc1`, the IkBa stabilization activation was inconclusive: 16.4% [signal inhibitor]. For `Cc1cc(C)cc(NC(=O)CCS(=O)(=O)c2ccc3c(c2)oc(=O)n3C)c1`, the IkBa stabilization activation was “inactive”. For `O=C(Nc1nnc2n1CCS2)c1ccccc1`, the IkBa stabilization activation was “inactive”. For `CCOC(=O)c1cc(-c2ccc(OC)cc2)n(CCC(=O)Nc2ccc(OC)cc2OC)c1C`, the IkBa stabilization activation was inconclusive: -1.2% [signal inhibitor]. With `CCOc1ccc(C(=O)Nc2ccc3nc(SCC(=O)N(C)c4ccccc4)sc3c2)cc1` the IkBa stabilization activation was inconclusive: -0.516% [signal inhibitor]. For `COc1ccccc1CNC(=O)c1ccc(Nc2nc3ccccc3n3nnnc23)cc1`, the Potency was inconclusive: 7.94 µM [signal inhibitor, partial curve]. In the case of `CCOc1ccc(/C=C/c2nc3ccccc3n2S(=O)(=O)c2cccc(Cl)c2)cc1`, the IkBa stabilization activation is reported as inconclusive: 6.13% [signal inhibitor]. For `CCc1ccccc1-n1c2c(cc(-c3nc(-c4ccc(Cl)cc4)cs3)c1=O)C(=O)CC(C)(C)C2`, the IkBa stabilization activation was inconclusive: 5.72% [signal inhibitor]. In the case of `CC(=O)N1c2ccc(S(=O)(=O)NCC3CCC(C(=O)Nc4ccc(F)cc4)CC3)cc2CC1C` (stereo unspecified), the IkBa stabilization activation is reported as inconclusive: 1.1% [signal inhibitor]. With `COc1ccc(CNC(=O)c2ccc3c(c2)CCN3S(=O)(=O)c2ccc(Cl)cc2)cc1` the IkBa stabilization activation was inconclusive: 1.78% [signal inhibitor]. With `Cc1ccc(-c2nn3c(=O)cc(CN4CCN(S(=O)(=O)c5ccc(Cl)cc5)CC4)nc3s2)cc1` the IkBa stabilization activation was inconclusive: -0.866% [signal inhibitor]. For `CC(NC(=O)C1=Cc2ccccc2OC1)c1ccccc1` (stereo unspecified), the IkBa stabilization activation was inconclusive: 3.1% [signal inhibitor]. For `COc1ccc(-c2ccc(CCC(=O)O)n2NC(=O)c2cccs2)cc1`, the IkBa stabilization activation was inconclusive: 14.4% [signal inhibitor]. With `CC(C)c1ccc(NC(=O)C(NS(=O)(=O)c2ccc3c(c2)CCC(=O)N3)c2ccccc2)cc1` (stereo unspecified) the IkBa stabilization activation was inconclusive: 3.41% [signal inhibitor]. In the case of `CCOCN(C(=O)Cn1c(CC(C)C)nc2ccccc21)c1c(C)cccc1CC`, the IkBa stabilization activation is reported as inconclusive: 0.501% [signal inhibitor]. With `CCOc1ccccc1Nc1ncnc2c1c(-c1ccccc1)cn2-c1ccc(OC)cc1` the IkBa stabilization activation was inconclusive: 2.79% [signal inhibitor]. In the case of `O=C1c2[nH]nc(-c3ccccc3O)c2C(c2ccc(Cl)cc2)N1CCc1ccccc1` (stereo unspecified), the IkBa stabilization activation is reported as inconclusive: -2.86% [signal inhibitor]. With `CCOC(=O)/C(C#N)=C1/C=C(C)NC(c2ccccc2O)=N1` the IkBa stabilization activation was inconclusive: -3.97% [signal inhibitor]. In the case of `COc1cc(OC)cc(-c2cc3nc(C)c(CCC(=O)Nc4ccc(F)c(Cl)c4)c(C)n3n2)c1`, the Potency is reported as inconclusive: 2 µM [signal inhibitor]. With `Cn1ccnc1SCC(=O)Nc1ccc(Oc2ccccc2)cc1` the IkBa stabilization activation was inconclusive: 9.4% [signal inhibitor]. With `Cc1cc(C)cc(NC(=O)c2ncn(-c3ccccc3)n2)c1` the Potency was inconclusive: 25.1 µM [signal inhibitor, partial curve]. For `CN1CCN(c2ncc3nc(-c4cn(C)c5ccccc45)c(=O)n(Cc4cccs4)c3n2)CC1`, the IkBa stabilization activation was inconclusive: -6.19% [signal inhibitor] [at 11.4 µM, scaled: untreated 0%, proteasome inhibitor 100%]. With `COc1ccc2[nH]cc(CCNC(=O)c3cnn(-c4ccccc4Cl)c3C3CCN(C(=O)OC(C)(C)C)CC3)c2c1` the IkBa stabilization activation was inconclusive: -1.31% [signal inhibitor]. For `COc1ccc2[nH]c3nc(SCc4nnc(-c5ccccc5)o4)nnc3c2c1`, the IkBa stabilization activation was “inactive”. With `COc1ccc(-c2[nH]c(-c3cccc(OC)c3)nc2SCC(=O)NCc2ccco2)cc1` the IkBa stabilization activation was inconclusive: 4.41% [signal inhibitor]. With `Cc1cc2nc(-c3cccc(NC(=O)c4ccc(Br)o4)c3C)oc2cc1C` the IkBa stabilization activation was inconclusive: 4.28% [signal inhibitor]. In the case of `Cc1cccc(N2CCN(C(=O)c3ccc(NC(=O)c4nsc5ccccc45)cc3)CC2)c1C`, the Potency is reported as inconclusive: 1.58 µM [signal inhibitor, partial curve]. With `Cc1nc2c(C(=O)NCCc3ccccc3)c[nH]n2c(=O)c1Cc1ccc(F)cc1Cl` the IkBa stabilization activation was inconclusive: -4.31% [signal inhibitor]. For `Cc1ccc(Nc2sc(C(=O)c3ccccc3)c(N)c2S(=O)(=O)c2ccccc2)c(C)c1`, the IkBa stabilization activation was “inactive”.
